According to ChEMBL document CHEMBL5113494, “Novel difluoromethyl-containing 1-((4-methoxy-3-(piperazin-1-yl)phenyl)sulfonyl)-1H-indole scaffold as potent 5-HT6R antagonists: Design, synthesis, biological evaluation, and early in vivo cognition-enhancing studies” (Bioorg Med Chem, 2022):

Columns and labels:
physchem [1] = conditions: octanol/water
physchem [2] = experiment: physchem
in vivo [3] = conditions: Sprague-Dawley, rat, po, 5 mg/kg
in vivo [4] = conditions: Sprague-Dawley, rat, po, 5 mg/kg; remark: listed apart in the source
in vivo [5] = conditions: Sprague-Dawley, rat, iv, 2 mg/kg
in vivo [6] = conditions: Sprague-Dawley, rat, po, 5 mg/kg; remark: listed apart in the source
in vivo [7] = conditions: Sprague-Dawley, rat, po, 5 mg/kg; remark: listed apart in the source
[8] = Sprague-Dawley, rat, in vivo, iv, 2 mg/kg, 24 h
[9] = molecular target: 5-hydroxytryptamine receptor 6 (Homo sapiens, UniProt P50406)
in vitro [10] = conditions: rat, microsomes
in vitro [11] = conditions: human, microsomes
in vitro [12] = conditions: rat, microsomes; remark: listed apart in the source
in vivo [13] = conditions: Sprague-Dawley, rat, iv, 2 mg/kg; remark: listed apart in the source
in vitro [14] = conditions: mouse, microsomes
in vitro [15] = conditions: human, microsomes; remark: listed apart in the source
in vitro [16] = conditions: rhesus monkey, microsomes
Cytochrome P450 1A2 = molecular target: T1, Cytochrome P450 1A2 (Homo sapiens, UniProt P05177)
T1 sequence (P05177 whole entry): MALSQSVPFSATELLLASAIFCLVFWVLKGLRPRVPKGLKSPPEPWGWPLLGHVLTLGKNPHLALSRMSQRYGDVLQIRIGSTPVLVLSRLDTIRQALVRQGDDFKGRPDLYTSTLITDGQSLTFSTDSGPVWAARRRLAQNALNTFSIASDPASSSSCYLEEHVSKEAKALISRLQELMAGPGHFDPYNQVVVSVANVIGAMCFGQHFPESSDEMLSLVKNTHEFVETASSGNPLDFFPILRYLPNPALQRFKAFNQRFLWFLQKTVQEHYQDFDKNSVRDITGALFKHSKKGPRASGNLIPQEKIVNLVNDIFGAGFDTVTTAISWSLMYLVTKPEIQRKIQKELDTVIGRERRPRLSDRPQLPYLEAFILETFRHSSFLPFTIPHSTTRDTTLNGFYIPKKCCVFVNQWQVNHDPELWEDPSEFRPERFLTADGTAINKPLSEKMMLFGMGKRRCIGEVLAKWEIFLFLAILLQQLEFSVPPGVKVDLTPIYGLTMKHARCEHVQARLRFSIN

Cytochrome P450 2C19 = Cytochrome P450 2C19 (Homo sapiens, UniProt P33261)
in vitro [17] = conditions: mouse, microsomes; remark: listed apart in the source
in vivo [18] = conditions: Sprague-Dawley, rat, iv, 2 mg/kg; remark: listed apart in the source
in vitro [19] = conditions: human, microsomes; remark: listed apart in the source
Cytochrome P450 2D6 = Cytochrome P450 2D6 (Homo sapiens, UniProt P10635)
in vitro [20] = conditions: rat, microsomes; remark: listed apart in the source
in vitro [21] = conditions: mouse, microsomes; remark: listed apart in the source
in vitro [22] = conditions: rhesus monkey, microsomes; remark: listed apart in the source
Cytochrome P450 3A4 = Cytochrome P450 3A4 (Homo sapiens, UniProt P08684)
in vitro [23] = conditions: rhesus monkey, microsomes; remark: listed apart in the source
in vivo [24] = conditions: Sprague-Dawley, rat, iv, 2 mg/kg; remark: listed apart in the source

Cytochrome P450 2D6, sequence (P10635 whole entry): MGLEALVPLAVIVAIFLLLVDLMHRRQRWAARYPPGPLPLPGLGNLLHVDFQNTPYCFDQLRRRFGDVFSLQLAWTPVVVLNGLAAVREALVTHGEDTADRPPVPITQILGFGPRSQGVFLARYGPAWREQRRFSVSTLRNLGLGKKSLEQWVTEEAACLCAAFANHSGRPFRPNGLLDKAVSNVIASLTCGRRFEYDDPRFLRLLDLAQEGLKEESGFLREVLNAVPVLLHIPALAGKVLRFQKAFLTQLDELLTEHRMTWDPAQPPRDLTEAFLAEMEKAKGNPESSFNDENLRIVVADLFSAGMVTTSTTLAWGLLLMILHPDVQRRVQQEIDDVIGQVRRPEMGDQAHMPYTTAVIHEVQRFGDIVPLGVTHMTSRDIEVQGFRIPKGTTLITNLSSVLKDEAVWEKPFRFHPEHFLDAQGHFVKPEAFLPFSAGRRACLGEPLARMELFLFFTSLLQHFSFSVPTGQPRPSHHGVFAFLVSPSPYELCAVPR
5-hydroxytryptamine receptor 6, sequence (P50406 whole entry): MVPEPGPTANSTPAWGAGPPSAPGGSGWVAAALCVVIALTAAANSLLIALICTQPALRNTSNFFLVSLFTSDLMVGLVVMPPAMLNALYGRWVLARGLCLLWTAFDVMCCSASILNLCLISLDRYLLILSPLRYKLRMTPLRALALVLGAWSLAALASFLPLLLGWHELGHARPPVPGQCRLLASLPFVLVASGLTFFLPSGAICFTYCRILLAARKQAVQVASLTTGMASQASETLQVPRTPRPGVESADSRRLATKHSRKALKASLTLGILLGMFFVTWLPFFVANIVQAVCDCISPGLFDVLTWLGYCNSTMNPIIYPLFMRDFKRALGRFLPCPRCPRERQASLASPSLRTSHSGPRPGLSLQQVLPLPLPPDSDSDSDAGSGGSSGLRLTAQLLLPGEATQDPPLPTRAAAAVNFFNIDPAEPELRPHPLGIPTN
Cytochrome P450 3A4, sequence (P08684 whole entry): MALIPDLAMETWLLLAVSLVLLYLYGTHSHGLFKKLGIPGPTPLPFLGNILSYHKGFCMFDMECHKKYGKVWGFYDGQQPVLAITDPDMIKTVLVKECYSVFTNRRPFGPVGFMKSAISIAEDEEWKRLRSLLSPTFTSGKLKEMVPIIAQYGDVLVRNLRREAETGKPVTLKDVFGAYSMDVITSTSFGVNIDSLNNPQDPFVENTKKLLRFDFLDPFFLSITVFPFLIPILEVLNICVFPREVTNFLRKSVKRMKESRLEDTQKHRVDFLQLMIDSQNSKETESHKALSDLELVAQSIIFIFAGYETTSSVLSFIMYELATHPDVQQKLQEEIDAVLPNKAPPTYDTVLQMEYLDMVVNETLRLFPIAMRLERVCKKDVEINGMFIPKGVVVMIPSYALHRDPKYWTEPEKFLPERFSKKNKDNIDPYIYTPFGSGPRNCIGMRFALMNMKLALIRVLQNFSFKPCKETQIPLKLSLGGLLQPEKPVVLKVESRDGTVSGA
Cytochrome P450 2C19, sequence (P33261 whole entry): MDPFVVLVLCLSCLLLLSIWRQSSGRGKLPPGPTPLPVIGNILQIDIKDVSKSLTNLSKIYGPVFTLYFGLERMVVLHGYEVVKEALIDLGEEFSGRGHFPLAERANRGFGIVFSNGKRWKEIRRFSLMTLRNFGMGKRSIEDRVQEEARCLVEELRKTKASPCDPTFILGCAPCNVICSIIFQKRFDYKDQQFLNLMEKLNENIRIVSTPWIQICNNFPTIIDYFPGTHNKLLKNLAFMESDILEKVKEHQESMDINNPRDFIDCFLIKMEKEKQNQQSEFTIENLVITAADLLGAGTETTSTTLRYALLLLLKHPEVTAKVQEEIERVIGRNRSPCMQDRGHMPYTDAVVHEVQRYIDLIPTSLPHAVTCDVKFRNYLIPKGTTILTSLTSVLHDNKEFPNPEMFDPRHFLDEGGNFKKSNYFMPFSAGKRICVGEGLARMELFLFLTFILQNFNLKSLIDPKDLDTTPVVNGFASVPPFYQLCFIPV

Compound: COc1ccc(S(=O)(=O)n2ccc3ccc(Cl)cc32)cc1N1CCNCC1
- logP (physchem [1]): 3.64
- pKa (physchem [2]): 8.79
- bioavailability at 24 h (in vivo [3]): 6.31%
- half-life at 24 h (in vivo [4]): 206 min
- Cmax at 24 h (in vivo [5]): 97 ng/mL
- Cmax at 24 h (in vivo [6]): 9 ng/mL
- AUC(0-t) at 24 h (in vivo [7]): 38 ng·h/mL
- AUCt [8]: 252 ng·h/mL

Compound: COc1ccc(S(=O)(=O)n2ccc3ccc(F)cc32)cc1N1CCNCC1
- logP (physchem [1]): 3.1
- pKa (physchem [2]): 8.82

Compound: COc1ccc(S(=O)(=O)n2cc(C)c3cc(Br)ccc32)cc1N1CCNCC1
- logP (physchem [1]): 3.85

Compound: COc1ccc(S(=O)(=O)n2cc(C(F)F)c3ccc(Br)cc32)cc1N1CCNCC1
- logP (physchem [1]): 3.61
- pKa (physchem [2]): 8.48

Compound: COc1cc(NS(=O)(=O)c2sc3cc(Cl)ccc3c2C)ccc1N1CCNCC1
- Ki [9]: 1.3 nM

Compound: COc1ccc(S(=O)(=O)n2cc(C(F)F)c3ccc(Cl)cc32)cc1N1CCNCC1
- remaining at 1 h, 1 µM (in vitro [10]): 46.6%
- logP (physchem [1]): 3.5
- remaining at 0.5 h, 1 µM (in vitro [11]): 79.9%
- pKa (physchem [2]): 8.57
- remaining at […], 1 µM (in vitro [12]): 82.2%
- Vd at 24 h (in vivo [13]): 37.9 L/kg
- bioavailability at 24 h (in vivo [3]): 60.9%
- remaining at 1 h, 1 µM (in vitro [14]): 53.9%
- Cmax at 24 h (in vivo [5]): 67 ng/mL
- Cmax at 24 h (in vivo [6]): 42 ng/mL
- remaining at 1 h, 1 µM (in vitro [15]): 71.5%
- remaining at […], 1 µM (in vitro [16]): 60.4%
- IC50 (Cytochrome P450 1A2): > 10 µM
- IC50 (Cytochrome P450 2C19): > 10 µM
- AUC(0-t) at 24 h (in vivo [7]): 497 ng·h/mL
- remaining at 0.5 h, 1 µM (in vitro [17]): 72%
- clearance at 24 h (in vivo [18]): 99 mL/min/kg
- remaining at […], 1 µM (in vitro [19]): 91.3%
- IC50 (Cytochrome P450 2D6): > 10 µM
- remaining at 0.5 h, 1 µM (in vitro [20]): 66.2%
- remaining at […], 1 µM (in vitro [21]): 83.5%
- remaining at 1 h, 1 µM (in vitro [22]): 11.4%
- IC50 (Cytochrome P450 3A4): 4.02 µM
- remaining at 0.5 h, 1 µM (in vitro [23]): 34.8%
- AUC(0-t) at 24 h (in vivo [24]): 327 ng·h/mL

Compound: COc1ccc(S(=O)(=O)n2cc(C)c3cc(Cl)ccc32)cc1N1CCNCC1
- logP (physchem [1]): 4.13

Compound: COc1ccc(S(=O)(=O)n2cc(C(F)F)c3cc(Br)ccc32)cc1N1CCNCC1
- logP (physchem [1]): 3.56
- pKa (physchem [2]): 8.59
